Laboratory results published in patent publication US8722849B2, “Polypeptides” (Novo Nordisk A/S, priority 2011, dated 2014).
At least one read-out could not be matched to a standard name with certainty. Starred links: 1 amine or outer side, 2 acyl side, 3 side chain; linkers in the order of their positions; H or OH if unused. Positions of bridges follow the written chain, without caps; N, C: chain ends. Residues, ends and D or L forms follow the SMILES beside them. Groups on a side chain read outwards from the residue. *: point of attachment. C20 diacid = O=C(O)CCCCCCCCCCCCCCCCCCC(=O)*; C18 diacid = O=C(O)CCCCCCCCCCCCCCCCC(=O)*; γGlu = O=C(O)[C@H](CCC(=O)[*:2])N[*:1]; AEEA = NCCOCCOCC(=O)O

Test: Assay (III) ThT fibrillation assay for physical stability
Assay type: physicochemical
Settings: ThT fibrillation assay
Summary of the method: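 Freshly prepared formulations, pH-adjusted, with 1 μM ThT; four or eight replicates incubated at 37 °C under 960 rpm orbital shaking. Fluorescence (ex 444/em 485 nm) read every 20 min; […]. Peptide concentration measured by RP-HPLC before and after the run.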

Row | Compound | ThT pH 4.0 recovery | ThT pH 4.0 recovery (%)
1 | CC[C@H](C)[C@H](NC(=O)[C@@H]1CCCN1C(=O)CNC(=O)[C@H](Cc1ccccc1)NC(=O)[C@H](CC(N)=O)NC(=O)[C@H](CC(N)=O)NC(=O)[C@H](CO)NC(=O)[C@H](CO)NC(=O)[C@H](Cc1c[nH]cn1)NC(=O)[C@H](Cc1c[nH]cn1)NC(=O)[C@H](CC(C)C)NC(=O)[C@H](Cc1ccccc1)NC(=O)[C@H](CCC(=O)O)NC(=O)[C@H](C)NC(=O)[C@H](CC(C)C)NC(=O)[C@H](CCCNC(=N)N)NC(=O)[C@H](CCC(N)=O)NC(=O)[C@@H](NC(=O)[C@H](C)NC(=O)[C@@H]1CSSC[C@H](NC(=O)[C@H](CCCCN)NC(=O)CC[C@H](NC(=O)CCCCCCCCCCCCCCCCCCC(=O)O)C(=O)O)C(=O)N[C@@H](CC(N)=O)C(=O)N[C@@H]([C@@H](C)O)C(=O)N[C@@H](C)C(=O)N[C@@H]([C@@H](C)O)C(=O)N1)[C@@H](C)O)C(=O)N[C@@H](CC(C)C)C(=O)N1CCC[C@H]1C(=O)N1CCC[C@H]1C(=O)N[C@H](C(=O)N[C@@H](CC(N)=O)C(=O)N[C@H](C(=O)NCC(=O)N[C@@H](Cc1c[nH]cn1)C(=O)N[C@@H](CC(N)=O)C(=O)N[C@H](C(=O)N[C@@H](Cc1ccc(O)cc1)C(N)=O)[C@@H](C)O)C(C)C)[C@@H](C)O [Example 115, N-alpha-[(S)-4-Carboxy-4-(19-carboxynonadecanoylamino)butyryl]-[Glu14,His17,His34]-pramlintide] ({C20 diacid-γGlu}-KCNTATCATQRLAEFLHHSSNNFGPILPPTNVGHNTY-NH2; disulfide 2-7 (inferred); C-terminus assumed) | 88% | 88%
2 | CC[C@H](C)[C@H](NC(=O)[C@@H]1CCCN1C(=O)CNC(=O)[C@H](Cc1ccccc1)NC(=O)[C@H](CC(N)=O)NC(=O)[C@H](CC(N)=O)NC(=O)[C@H](CO)NC(=O)[C@H](CO)NC(=O)[C@H](Cc1c[nH]cn1)NC(=O)[C@H](CCCCNC(=O)COCCOCCNC(=O)COCCOCCNC(=O)CC[C@H](NC(=O)CCCCCCCCCCCCCCCCC(=O)O)C(=O)O)NC(=O)[C@H](CC(C)C)NC(=O)[C@H](Cc1ccccc1)NC(=O)[C@H](CCC(=O)O)NC(=O)[C@H](C)NC(=O)[C@H](CC(C)C)NC(=O)[C@H](CCCNC(=N)N)NC(=O)[C@H](CCC(N)=O)NC(=O)[C@@H](NC(=O)[C@H](C)NC(=O)[C@@H]1CSSC[C@H](NC(=O)[C@@H](N)CCCCN)C(=O)N[C@@H](CC(N)=O)C(=O)N[C@@H]([C@@H](C)O)C(=O)N[C@@H](C)C(=O)N[C@@H]([C@@H](C)O)C(=O)N1)[C@@H](C)O)C(=O)N[C@@H](CC(C)C)C(=O)N1CCC[C@H]1C(=O)N1CCC[C@H]1C(=O)N[C@H](C(=O)N[C@@H](CC(N)=O)C(=O)N[C@H](C(=O)NCC(=O)N[C@@H](CO)C(=O)N[C@@H](CC(N)=O)C(=O)N[C@H](C(=O)N[C@@H](Cc1ccc(O)cc1)C(N)=O)[C@@H](C)O)C(C)C)[C@@H](C)O [Example 80, N-epsilon17-[2-(2-{2-[2-(2-{2-[(S)-4-Carboxy-4-(17-carboxyheptadecanoylamino)butyrylamino]ethoxy}ethoxy)acetylamino]ethoxy}ethoxy)acetyl]-[Glu14,Lys17]-pramlintide] (H-KCNTATCATQRLAEFLK([AEEA-AEEA-γGlu-C18 diacid])HSSNNFGPILPPTNVGSNTY-NH2; disulfide 2-7) |  | 7%
3 | CC[C@H](C)[C@H](NC(=O)[C@@H]1CCCN1C(=O)CNC(=O)[C@H](Cc1ccccc1)NC(=O)[C@H](CC(N)=O)NC(=O)[C@H](CC(N)=O)NC(=O)[C@H](CO)NC(=O)[C@H](CO)NC(=O)[C@H](Cc1c[nH]cn1)NC(=O)[C@H](Cc1c[nH]cn1)NC(=O)[C@H](CC(C)C)NC(=O)[C@H](Cc1ccccc1)NC(=O)[C@H](CCC(=O)O)NC(=O)[C@H](C)NC(=O)[C@H](CC(C)C)NC(=O)[C@H](CCCNC(=N)N)NC(=O)[C@H](CCC(N)=O)NC(=O)[C@@H](NC(=O)[C@H](C)NC(=O)[C@@H]1CSSC[C@H](NC(=O)[C@H](CCCCN)NC(=O)CC[C@H](NC(=O)CCCCCCCCCCCCCCCCCCC(=O)O)C(=O)O)C(=O)N[C@@H](CC(N)=O)C(=O)N[C@@H]([C@@H](C)O)C(=O)N[C@@H](C)C(=O)N[C@@H]([C@@H](C)O)C(=O)N1)[C@@H](C)O)C(=O)N[C@@H](CC(C)C)C(=O)N1CCC[C@H]1C(=O)N1CCC[C@H]1C(=O)N[C@H](C(=O)N[C@@H](CC(N)=O)C(=O)N[C@H](C(=O)NCC(=O)N[C@@H](CO)C(=O)N[C@@H](CC(N)=O)C(=O)N[C@@H](Cc1c[nH]cn1)C(=O)N[C@@H](Cc1ccc(O)cc1)C(N)=O)C(C)C)[C@@H](C)O [Example 114, N-alpha-[(S)-4-Carboxy-4-(19-carboxynonadecanoylamino)butyryl]-[Glu14,His17,His36]-pramlintide] ({C20 diacid-γGlu}-KCNTATCATQRLAEFLHHSSNNFGPILPPTNVGSNHY-NH2; disulfide 2-7 (inferred)) | 89% | 89%
4 | CC[C@H](C)[C@H](NC(=O)[C@@H]1CCCN1C(=O)CNC(=O)[C@H](Cc1ccccc1)NC(=O)[C@H](CC(N)=O)NC(=O)[C@H](CC(N)=O)NC(=O)[C@H](CO)NC(=O)[C@H](CO)NC(=O)[C@H](Cc1c[nH]cn1)NC(=O)[C@H](CCCNC(=N)N)NC(=O)[C@H](CC(C)C)NC(=O)[C@H](Cc1ccccc1)NC(=O)[C@H](CCC(=O)O)NC(=O)[C@H](C)NC(=O)[C@H](CC(C)C)NC(=O)[C@H](CCCNC(=N)N)NC(=O)[C@H](CCC(N)=O)NC(=O)[C@@H](NC(=O)[C@H](C)NC(=O)[C@@H]1CSSC[C@H](NC(=O)[C@H](CCCCN)NC(=O)[C@H](CCC(=O)O)NC(=O)CC[C@H](NC(=O)CCCCCCCCCCCCCCCCC(=O)O)C(=O)O)C(=O)N[C@@H](CC(N)=O)C(=O)N[C@@H]([C@@H](C)O)C(=O)N[C@@H](C)C(=O)N[C@@H]([C@@H](C)O)C(=O)N1)[C@@H](C)O)C(=O)N[C@@H](CC(C)C)C(=O)N1CCC[C@H]1C(=O)N1CCC[C@H]1C(=O)N[C@H](C(=O)N[C@@H](CC(N)=O)C(=O)N[C@H](C(=O)NCC(=O)N[C@@H](CO)C(=O)N[C@@H](Cc1c[nH]cn1)C(=O)N[C@H](C(=O)N[C@@H](Cc1ccc(O)cc1)C(N)=O)[C@@H](C)O)C(C)C)[C@@H](C)O [Example 62, N-alpha-[(S)-4-Carboxy-4-(17-carboxyheptadecanoylamino)butyryl]-Glu-[Glu14,Arg17,His35]-pramlintide] ({C18 diacid-γGlu}-EKCNTATCATQRLAEFLRHSSNNFGPILPPTNVGSHTY-NH2; disulfide 3-8 (inferred); C-terminus assumed) | 53% | 53%
5 | CC[C@H](C)[C@H](NC(=O)[C@@H]1CCCN1C(=O)CNC(=O)[C@H](Cc1ccccc1)NC(=O)[C@H](CC(N)=O)NC(=O)[C@H](CC(N)=O)NC(=O)[C@H](CO)NC(=O)[C@H](CO)NC(=O)[C@H](CCCNC(=N)N)NC(=O)[C@@H](NC(=O)[C@H](CC(C)C)NC(=O)[C@H](Cc1ccccc1)NC(=O)[C@H](CCC(=O)O)NC(=O)[C@H](C)NC(=O)[C@H](CC(C)C)NC(=O)[C@H](CCCNC(=N)N)NC(=O)[C@H](CCC(N)=O)NC(=O)[C@@H](NC(=O)[C@H](C)NC(=O)[C@@H]1CSSC[C@H](NC(=O)[C@H](Cc2c[nH]cn2)NC(=O)CC[C@H](NC(=O)CCCCCCCCCCCCCCCCCCC(=O)O)C(=O)O)C(=O)N[C@@H](CC(N)=O)C(=O)N[C@@H]([C@@H](C)O)C(=O)N[C@@H](C)C(=O)N[C@@H]([C@@H](C)O)C(=O)N1)[C@@H](C)O)C(C)C)C(=O)N[C@@H](CC(C)C)C(=O)N1CCC[C@H]1C(=O)N1CCC[C@H]1C(=O)N[C@H](C(=O)N[C@@H](CC(N)=O)C(=O)N[C@H](C(=O)NCC(=O)N[C@@H](CO)C(=O)N[C@@H](CC(N)=O)C(=O)N[C@H](C(=O)N[C@@H](Cc1ccc(O)cc1)C(N)=O)[C@@H](C)O)C(C)C)[C@@H](C)O [Example 15, N-alpha-[(S)-4-Carboxy-4-(19-carboxynonadecanoylamino)butyryl]-[His1,Glu14,Arg18]-pramlintide] ({C20 diacid-γGlu}-HCNTATCATQRLAEFLVRSSNNFGPILPPTNVGSNTY-NH2; disulfide 2-7 (inferred); C-terminus assumed) |  | 2%
6 | CC[C@H](C)[C@H](NC(=O)[C@@H]1CCCN1C(=O)CNC(=O)[C@H](Cc1ccccc1)NC(=O)[C@H](CC(N)=O)NC(=O)[C@H](CC(N)=O)NC(=O)[C@H](CO)NC(=O)[C@H](CO)NC(=O)[C@H](Cc1c[nH]cn1)NC(=O)[C@H](CCCNC(=N)N)NC(=O)[C@H](CC(C)C)NC(=O)[C@H](Cc1ccccc1)NC(=O)[C@H](CCC(=O)O)NC(=O)[C@H](C)NC(=O)[C@H](CC(C)C)NC(=O)[C@H](CCCNC(=N)N)NC(=O)[C@H](CCC(N)=O)NC(=O)[C@@H](NC(=O)[C@H](C)NC(=O)[C@@H]1CSSC[C@H](NC(=O)[C@H](CCCNC(=N)N)NC(=O)[C@H](CCC(=O)O)NC(=O)CC[C@H](NC(=O)CCCCCCCCCCCCCCCCCCC(=O)O)C(=O)O)C(=O)N[C@@H](CC(N)=O)C(=O)N[C@@H]([C@@H](C)O)C(=O)N[C@@H](C)C(=O)N[C@@H]([C@@H](C)O)C(=O)N1)[C@@H](C)O)C(=O)N[C@@H](CC(C)C)C(=O)N1CCC[C@H]1C(=O)N1CCC[C@H]1C(=O)N[C@H](C(=O)N[C@@H](CC(N)=O)C(=O)N[C@H](C(=O)NCC(=O)N[C@@H](CO)C(=O)N[C@@H](CC(N)=O)C(=O)N[C@H](C(=O)N1CCC[C@H]1C(N)=O)[C@@H](C)O)C(C)C)[C@@H](C)O [Example 156, N-alpha-[(S)-4-Carboxy-4-(19-carboxynonadecanoylamino)butyryl]-Glu-[Arg1,Glu14,Arg17,Pro37]-pramlintide] ({C20 diacid-γGlu}-ERCNTATCATQRLAEFLRHSSNNFGPILPPTNVGSNTP-NH2; disulfide 3-8 (inferred)) | 99% | 99%
